In US8592383B2, “Cycloalkyl-fused tetrahydroquinolines as CRTH2 receptor modulators” (Merck Sharp & Dohme Corp., priority 2011, dated 2013):

Biological target: T1, hCRTH2 (Homo sapiens, UniProt Q9Y5Y4)
T1 sequence (Q9Y5Y4 1-395): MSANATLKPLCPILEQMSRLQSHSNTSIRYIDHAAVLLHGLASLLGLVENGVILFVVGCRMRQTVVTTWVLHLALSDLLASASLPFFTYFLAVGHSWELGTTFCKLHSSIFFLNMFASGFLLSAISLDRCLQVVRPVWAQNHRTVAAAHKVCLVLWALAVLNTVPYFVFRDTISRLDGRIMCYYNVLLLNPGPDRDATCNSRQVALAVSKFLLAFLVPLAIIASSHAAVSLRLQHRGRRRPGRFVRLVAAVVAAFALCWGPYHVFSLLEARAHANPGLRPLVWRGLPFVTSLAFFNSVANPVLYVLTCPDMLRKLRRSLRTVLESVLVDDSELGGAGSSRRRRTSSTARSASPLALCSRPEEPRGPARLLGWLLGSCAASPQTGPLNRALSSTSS
Test: biochemical
Conditions: Ki (nM), Table A; Radioligand Binding Assay A, [3H]PGD2, HEK-hCRTH2 membranes

SMILES	Ki [nM]
N#Cc1ccc(COC(=O)N2c3ccccc3C(N(C(=O)CCC(=O)O)C3CC3)C3CCCC32)cc1 (single isomer, unassigned) [22P, 4-[(4-cyanophenyl)methyl] cis, cis-[(3-carboxy-1-oxopropyl)cyclopropylamino]-1,2,3,3a,9,9a-hexahydro-4H-cyclopenta[b]quinoline-4-carboxylate]	20.1 to 200
O=C(O)CCC(=O)N(C1CC1)C1c2ccc(Cl)cc2N(C(=O)OCc2ccc(F)cc2)C2CCCC21 (single isomer, unassigned) [22T, 4-[(4-fluorophenyl)methyl] cis, cis-[(3-carboxy-1-oxopropyl)cyclopropylamino]-6-chloro-1,2,3,3a,9,9a-hexahydro-4H-cyclopenta[b]quinoline-4-carboxylate]	5.1 to 20
C[C@H](OC(=O)N1c2cc(Cl)ccc2C(N(C(=O)CCC(=O)O)C2CC2)C2CCCC21)c1ccc(F)cc1 (single isomer, unassigned) [22U]	1 to 5
O=C(O)CCC(=O)N(C1CC1)C1c2ccc(Cl)cc2N(C(=O)O[C@H]2CCc3ccccc32)C2CCCC21 (single isomer, unassigned) [22V]	1 to 5
O=C(O)CCC(=O)N(C1CC1)C1c2ccc(Cl)cc2N(C(=O)O[C@@H]2CCc3ccccc32)C2CCCC21 (single isomer, unassigned) [22W]	5.1 to 20
O=C(O)CCC(=O)N(C1CC1)[C@@H]1c2ccc(Cl)cc2N(C(=O)OC2Cc3ccccc3C2)[C@@H]2CCC[C@@H]21 (single isomer, unassigned) [22X, 4-(2,3-dihydro-1H-inden-2-yl) cis, cis-[(3-carboxy-1-oxopropyl)cyclopropylamino]-6-chloro-1,2,3,3a,9,9a-hexahydro-4H-cyclopenta[b]quinoline-4-carboxylate]	5.1 to 20
O=C(O)CCC(=O)N(C1CC1)[C@@H]1c2ccc(Cl)cc2N(C(=O)OCc2ccc(F)cc2F)[C@@H]2CCC[C@@H]21 (single isomer, unassigned) [22Y, 4-[(2,4-difluorophenyl)methyl] cis, cis-[(3-carboxy-1-oxopropyl)cyclopropylamino]-6-chloro-1,2,3,3a,9,9a-hexahydro-4H-cyclopenta[b]quinoline-4-carboxylate]	5.1 to 20
O=C(O)CCC(=O)N(C1CC1)C1c2cc(F)ccc2N(C(=O)OCc2ccccc2)C2CCC21 (single isomer, unassigned) [27A, 3-(phenylmethyl) cis, cis-[(3-carboxy-1-oxopropyl)cyclopropylamino]-6-fluoro-2,2a,8,8a-tetrahydrocyclobuta[b]quinoline-3(1H)-carboxylate]	5.1 to 20
O=C(O)CCC(=O)N(C1CC1)C1c2cc(F)ccc2N(C(=O)c2ccc(OC(F)(F)F)cc2)C2CCC21 (single isomer, unassigned) [27B, 4-[cyclopropyl[cis, cis-6-fluoro-1,2,2a,3,8,8a-hexahydro-3-[4-(trifluoromethoxy)benzoyl]cyclobuta[b]quinolin-8-yl]amino]-4-oxobutanoic acid]	1 to 5
O=C(O)CCC(=O)N(C1CC1)C1c2cc(F)ccc2N(C(=O)c2cc(F)cc(F)c2)C2CCC21 (single isomer, unassigned) [27C, 4-[cyclopropyl[cis, cis-3-(3,5-difluorobenzoyl)-6-fluoro-1,2,2a,3,8,8a-hexahydrocyclobuta[b]quinolin-8-yl]amino]-4-oxobutanoic acid]	5.1 to 20
O=C(O)CCC(=O)N(C1CC1)C1c2ccc(Cl)cc2N(C(=O)OCc2ccccc2)C2CCC21 (single isomer, unassigned) [27D, 3-(phenylmethyl) cis, cis-[(3-carboxy-1-oxopropyl)cyclopropylamino]-5-chloro-2,2a,8,8a-tetrahydrocyclobuta[b]quinoline-3(1H)-carboxylate]	201 to 7500
O=C(O)CCC(=O)N(C1CC1)[C@@H]1c2cc(F)ccc2N(C(=O)c2cc(F)cc(F)c2)[C@@H]2CC[C@@H]21 (single isomer, unassigned) [27E, 4-[cyclopropyl[cis, cis-3-(3,5-difluorobenzoyl)-6-fluoro-1,2,2a,3,8,8a-hexahydrocyclobuta[b]quinolin-8-yl]amino]-4-oxobutanoic acid]	201 to 7500
O=C(O)CCC(=O)N(C1CC1)[C@@H]1c2cc(F)ccc2N(C(=O)c2cccc(OC(F)(F)F)c2)[C@@H]2CC[C@@H]21 (single isomer, unassigned) [27F, 4-[cyclopropyl[cis, cis-6-fluoro-1,2,2a,3,8,8a-hexahydro-3-[3-(trifluoromethoxy)benzoyl]cyclobuta[b]quinolin-8-yl]amino]-4-oxobutanoic acid]	201 to 7500
O=C(O)CCC(=O)N(C1CC1)C1c2ccc(Cl)cc2N(C(=O)OCc2ccccc2)C2CCC21 (single isomer, unassigned) [27G, 3-(phenylmethyl) cis, cis-[(3-carboxyl-1-oxopropyl)cyclopropylamino]-5-chloro-2,2a,8,8a-tetrahydrocyclobuta[b]quinoline-3(1H)-carboxylate]	5.1 to 20
O=C(O)CCC(=O)N(C1CC1)C1c2ccc(Cl)cc2N(C(=O)c2ccc(OC(F)(F)F)cc2)C2CCC21 (single isomer, unassigned) [27H, 4-[[cis, cis-5-chloro-1,2,2a,3,8,8a-hexahydro-3-[4-(trifluoromethoxy)benzoyl]cyclobuta[b]quinolin-8-yl]cyclopropylamino]-4-oxobutanoic acid]	201 to 7500
O=C(O)CCC(=O)N(C1CC1)C1c2ccc(Cl)cc2N(C(=O)c2cc(F)cc(F)c2)C2CCC21 (single isomer, unassigned) [27J, 4-[[cis, cis-5-chloro-3-(3,5-difluorobenzoyl)-1,2,2a,3,8,8a-hexahydrocyclobuta[b]quinolin-8-yl]cyclopropylamino]-4-oxobutanoic acid]	201 to 7500
O=C(O)CCC(=O)N(C1CC1)C1c2ccc(Cl)cc2N(C(=O)c2ccc(OC(F)(F)F)cc2)C2CCC21 (single isomer, unassigned) [27K, 4-[[cis, cis-5-chloro-1,2,2a,3,8,8a-hexahydro-3-[4-(trifluoromethoxy)benzoyl]cyclobuta[b]quinolin-8-yl]cyclopropylamino]-4-oxobutanoic acid]	1 to 5

The remaining lines, values ahead:

Ki [nM]	SMILES
1 to 5	O=C(O)CCC(=O)N(C1CC1)C1c2ccc(Cl)cc2N(C(=O)c2cccc(OC(F)(F)F)c2)C2CCC21 (single isomer, unassigned) [27L, 4-[[cis, cis-5-chloro-1,2,2a,3,8,8a-hexahydro-3-[3-(trifluoromethoxy)benzoyl]cyclobuta[b]quinolin-8-yl]cyclopropylamino]-4-oxobutanoic acid]
5.1 to 20	O=C(O)CCC(=O)N(C1CC1)C1c2ccc(Cl)cc2N(C(=O)c2cc(F)cc(F)c2)C2CCC21 (single isomer, unassigned) [27M, 4-[[cis, cis-5-chloro-3-(3,5-difluorobenzoyl)-1,2,2a,3,8,8a-hexahydrocyclobuta[b]quinolin-8-yl]cyclopropylamino]-4-oxobutanoic acid]
5.1 to 20	O=C(O)CCC(=O)N(C1CC1)C1c2ccccc2N(C(=O)OCc2ccccc2)C2CCC21 (single isomer, unassigned) [27N, 3-(phenylmethyl) cis, cis-[(3-carboxy-1-oxopropyl)cyclopropylamino]-2,2a,8,8a-tetrahydrocyclobuta[b]quinoline-3(1H)-carboxylate]
5.1 to 20	O=C(O)CCC(=O)N(C1CC1)C1c2ccccc2N(C(=O)c2ccc(F)cc2)C2CCC21 (single isomer, unassigned) [27Q, 4-[cyclopropyl[cis, cis-3-(4-fluorobenzoyl)-1,2,2a,3,8,8a-hexahydrocyclobuta[b]quinolin-8-yl]amino]-4-oxobutanoic acid]
5.1 to 20	O=C(O)CCC(=O)N(C1CC1)C1c2ccccc2N(C(=O)c2cccc(F)c2)C2CCC21 (single isomer, unassigned) [27R, 4-[cyclopropyl[cis, cis-3-(3-fluorobenzoyl)-1,2,2a,3,8,8a-hexahydrocyclobuta[b]quinolin-8-yl]amino]-4-oxobutanoic acid]
1 to 5	O=C(O)CCC(=O)N(C1CC1)C1c2ccccc2N(C(=O)c2cccc(OC(F)(F)F)c2)C2CCC21 (single isomer, unassigned) [27S, 4-[cyclopropyl[cis,cis-1,2,2a,3,8,8a-hexahydro-3-[3-(trifluoromethoxy)benzoyl]cyclobuta[b]quinolin-8-yl]amino]-4-oxobutanoic acid]
201 to 7500	O=C(O)CCC(=O)N(C1CC1)C1c2ccc(Cl)cc2N(C(=O)c2cccc(OC(F)(F)F)c2)C2CCC21 (single isomer, unassigned) [27i, 4-[[cis, cis-5-chloro-1,2,2a,3,8,8a-hexahydro-3-[3-(trifluoromethoxy)benzoyl]cyclobuta[b]quinolin-8-yl]cyclopropylamino]-4-oxobutanoic acid]
20.1 to 200	O=C(O)COC(=O)N(C1CC1)C1c2ccccc2N(C(=O)OCc2ccccc2)C2CCCC21 (single isomer, unassigned) [32D]
1 to 5	O=C(O)COC(=O)N(C1CC1)C1c2ccccc2N(C(=O)OCc2ccccc2)C2CCCC21 (single isomer, unassigned) [32E]
1 to 5	O=C(O)COC(=O)N(C1CC1)[C@H]1c2cc(F)ccc2N(C(=O)OCc2ccccc2)[C@H]2CCC[C@H]21 (single isomer, unassigned) [32F]
1 to 5	O=C(O)COC(=O)N(C1CC1)[C@@H]1c2ccccc2N(C(=O)OCc2ccccc2)[C@@H]2CC[C@@H]21 (single isomer, unassigned) [32G]
1 to 5	O=C(O)COC(=O)N(C1CC1)C1c2ccccc2N(C(=O)c2ccc(OC(F)(F)F)cc2)C2CCC21 (single isomer, unassigned) [32H, [[[cyclopropyl[cis,cis-1,2,2a,3,8,8a-hexahydro-3-[4-(trifluoromethoxy)benzoyl]cyclobuta[b]quinolin-8-yl]amino]carbonyl]oxy]acetic acid]
